Laboratory results from patent publication US20230227584A1.
Numbering of substitutions follows the chain as printed. Blank lines part the entries; values can stand above or below the binder they belong to.

Legend:
[1] = target: T1, human OX40 on the cell surface (activated human T cells; HeLa_hOx40_NFkB_Luc1 reporter cells) (human), P43489; assay: cell-based or functional assay
T1 chain: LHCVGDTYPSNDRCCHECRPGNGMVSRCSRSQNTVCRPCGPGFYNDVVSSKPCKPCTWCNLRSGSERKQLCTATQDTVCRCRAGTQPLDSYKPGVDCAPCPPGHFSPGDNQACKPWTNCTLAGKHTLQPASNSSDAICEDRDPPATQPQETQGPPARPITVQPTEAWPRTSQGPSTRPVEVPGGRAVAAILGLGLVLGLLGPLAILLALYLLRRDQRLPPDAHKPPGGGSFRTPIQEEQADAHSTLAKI

[2] = target: human fibroblast activation protein (huFAP) on NIH/3T3-huFAP clone 19 cells (human), Q12884; assay: flow cytometry, NIH/3T3-huFAP clone 19 cells
[3] = target: T1, human OX40 on the cell surface …; assay: flow cytometry, activated human PBMC gated on CD4+ T cells

EC50 of CD25 upregulation on CD4+ T cells, suboptimal TCR stimulation of human PBMC with NIH/3T3-huFAP cells [1]: 2 pM
EC50 of NFκB activation (luciferase), HeLa hOx40 NFkB Luc1, w/ hu FAP [1]: 180 pM
EC50 of NFκB activation (luciferase), HeLa hOx40 NFkB Luc1, w/o [1]: 700 pM
EC50 of increased TCB mediated cytokine secretion following FAP-OX40 costimulation of primary human PBMCs [1]: 58 pM
EC50 of suppression of FoxP3 induction (FoxP3 MFI) on TGFβ-exposed CD4 T cells, FAP-coated beads [1]: 10 pM
EC50 [2]: 1330 pM
EC50 [3]: 1460 pM
B1: P1AF7217 OX40 (CLC563) x FAP (1G1a_EPKSCS) (4+1) C-terminal crossfab fusion (bispecific antibody, human IgG1, kappa)
heavy 1: [sequence of about 100 residues not given]DVGAFDYWGQGALVTVSSASTKGPSVFPLAPSSKSTSGGTAALGCLVEDYFPEPVTVSWNSGALTSGVHTFPAVLQSSGLYSLSSVVTVPSSSLGTQTYICNVNHKPSNTKVDEKVEPKSCGGGGSGGSGG[sequence of about 100 residues not given]DVGAFDYWGQGALVTVSSASTKGPSVFPLAPSSKSTSGGTAALGCLVEDYFPEPVTVSWNSGALTSGVHTFPAVLQSSGLYSLSSVVTVPSSSLGTQTYICNVNHKPSNTKVDEKV[sequence of human IgG1 Fc with changes not given]GGGGSGGGGSGGGGSGGSGGQVQLVQSGAEVKKPGASVKVSCKASGYTLTDYNMDWVRQAPGQGLEWIGDIYPNTGGTIYNQKFKGRVTMTIDTSTSTVYMELSSLRSEDTAVYYCTRFRGIHYAMDYWGQGTTVTVSSASVAAPSVFIFPPSDEQLKSGTASVVCLLNNFYPREAKVQWKVDNALQSGNSQESVTEQDSKDSTYSLSSTLTLSKADYEKHKVYACEVTHQGLSSPVTKSFNRGEC
heavy 2: [sequence of about 100 residues not given]DVGAFDYWGQGALVTVSSASTKGPSVFPLAPSSKSTSGGTAALGCLVEDYFPEPVTVSWNSGALTSGVHTFPAVLQSSGLYSLSSVVTVPSSSLGTQTYICNVNHKPSNTKVDEKVEPKSCGGGGSGGSGG[sequence of about 100 residues not given]DVGAFDYWGQGALVTVSSASTKGPSVFPLAPSSKSTSGGTAALGCLVEDYFPEPVTVSWNSGALTSGVHTFPAVLQSSGLYSLSSVVTVPSSSLGTQTYICNVNHKPSNTKVDEKVEPKSCDKTHTCPPCPAPEAAGGPSVFLFPPKPKDTLMISRTPEVTCVVVDVSHEDPEVKFNWYVDGVEVHNAKTKPREEQYNSTYRVVSVLTVLHQDWLNGKEYKCKVSNKALGAPIEKTISKAKGQPREPQVCTLPPSRDELTKNQVSLSCAVKGFYPSDIAVEWESNGQPENNYKTTPPVLDSDGSFFLVSKLTVDKSRWQQGNVFSCSVMHEALHNHYTQKSLSLSP
light 1: [sequence of about 100 residues not given][sequence of about 100 residues not given]
light 2: EIVLTQSPATLSLSPGERATLSCRASESVDNYGLSFINWFQQKPGQAPRLLIYGTSNRGSGIPARFSGSGSGTDFTLTISSLEPEDFAVYFCQQSNEVPYTFGGGTKVEIKSSASTKGPSVFPLAPSSKSTSGGTAALGCLVKDYFPEPVTVSWNSGALTSGVHTFPAVLQSSGLYSLSSVVTVPSSSLGTQTYICNVNHKPSNTKVDKKVEPKSCS

EC50 [2]: 1040 pM
B2: P1AF7205 OX40(CLC563) x FAP (1G1a_EPKSCD) (4+1) C-terminal crossfab fusion (bispecific antibody, human IgG1, kappa)
heavy 1: [sequence of about 100 residues not given]DVGAFDYWGQGALVTVSSASTKGPSVFPLAPSSKSTSGGTAALGCLVEDYFPEPVTVSWNSGALTSGVHTFPAVLQSSGLYSLSSVVTVPSSSLGTQTYICNVNHKPSNTKVDEKVEPKSCGGGGSGGSGG[sequence of about 100 residues not given]DVGAFDYWGQGALVTVSSASTKGPSVFPLAPSSKSTSGGTAALGCLVEDYFPEPVTVSWNSGALTSGVHTFPAVLQSSGLYSLSSVVTVPSSSLGTQTYICNVNHKPSNTKVDEKV[sequence of human IgG1 Fc with changes not given]GGGGSGGGGSGGGGSGGSGGQVQLVQSGAEVKKPGASVKVSCKASGYTLTDYNMDWVRQAPGQGLEWIGDIYPNTGGTIYNQKFKGRVTMTIDTSTSTVYMELSSLRSEDTAVYYCTRFRGIHYAMDYWGQGTTVTVSSASVAAPSVFIFPPSDEQLKSGTASVVCLLNNFYPREAKVQWKVDNALQSGNSQESVTEQDSKDSTYSLSSTLTLSKADYEKHKVYACEVTHQGLSSPVTKSFNRGEC
heavy 2: [sequence of about 100 residues not given]DVGAFDYWGQGALVTVSSASTKGPSVFPLAPSSKSTSGGTAALGCLVEDYFPEPVTVSWNSGALTSGVHTFPAVLQSSGLYSLSSVVTVPSSSLGTQTYICNVNHKPSNTKVDEKVEPKSCGGGGSGGSGG[sequence of about 100 residues not given]DVGAFDYWGQGALVTVSSASTKGPSVFPLAPSSKSTSGGTAALGCLVEDYFPEPVTVSWNSGALTSGVHTFPAVLQSSGLYSLSSVVTVPSSSLGTQTYICNVNHKPSNTKVDEKVEPKSCDKTHTCPPCPAPEAAGGPSVFLFPPKPKDTLMISRTPEVTCVVVDVSHEDPEVKFNWYVDGVEVHNAKTKPREEQYNSTYRVVSVLTVLHQDWLNGKEYKCKVSNKALGAPIEKTISKAKGQPREPQVCTLPPSRDELTKNQVSLSCAVKGFYPSDIAVEWESNGQPENNYKTTPPVLDSDGSFFLVSKLTVDKSRWQQGNVFSCSVMHEALHNHYTQKSLSLSP
light 1: [sequence of about 100 residues not given][sequence of about 100 residues not given]
light 2: B1 light 2 with S217D
